# Laboratory results: the supplement of paper PMC8728848
# Some of the results follow.
# B1: LgFlo1 (Saccharomyces pastorianus), B3IUA8 (protein)
# chain: SGSTQACLPVGSRKNGMNVNFYKYSLQDSTTYSDPQYMAYKYSDTKKLGSVSGQTHLSIYYGPNTAFWNTASWSSDLFGFYTTPTNVTVEMTGYFLPPQTGSYTFKFATVDDSAILSVGGSIAFECCAQEQPPITSTDFTINGIKPWDAATPTDIKGSTYMYAGYYYPIKIVYSNAKALARLPVSVVLPDGTEVNDDFEGYVYSFDDDLSQSNCTIPDPSKHTTS
# Legend:
# Experiment in all cases: glycan array binding signal (z-score within array); higher = stronger binding
# Settings in all cases: glycan notation: IUPAC condensed, linker removed
# [1] = biological target: Gal(b1-4)GlcNAc(b1-3)Gal(b1-4)GlcNAc(b1-2)Man(a1-3)[Gal(b1-4)GlcNAc(b1-3)Gal(b1-4)GlcNAc(b1-2)Man(a1-6)]Man(b1-4)GlcNAc(b1-4)[Fuc(a1-6)]GlcNAc
# Outline: (§1)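 The Consortium for Functional Glycomics database supplied 3228 glycan arrays, of which those lacking an available protein sequence were dropped. The binding signal, a within-array Z-score, was averaged across arrays of the same protein sequence and across linkers. Negative scores can be read as non-binding.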
# [2] = biological target: Gal(b1-4)GlcNAc(b1-3)Gal(b1-4)GlcNAc(b1-2)[Gal(b1-4)GlcNAc(b1-3)Gal(b1-4)GlcNAc(b1-6)]Man(a1-6)[Gal(b1-4)GlcNAc(b1-3)Gal(b1-4)GlcNAc(b1-2)Man(a1-3)]Man(b1-4)GlcNAc(b1-4)GlcNAc
# Outline: as §1
# [3] = biological target: Gal(b1-4)GlcNAc(b1-3)Gal(b1-4)GlcNAc(b1-2)[Gal(b1-4)GlcNAc(b1-3)Gal(b1-4)GlcNAc(b1-6)]Man(a1-6)[Gal(b1-4)GlcNAc(b1-3)Gal(b1-4)GlcNAc(b1-2)Man(a1-3)]Man(b1-4)GlcNAc(b1-4)[Fuc(a1-6)]GlcNAc
# Outline: as §1
# [4] = biological target: Gal(b1-4)GlcNAc(b1-3)Gal(b1-4)GlcNAc(b1-3)Gal(b1-4)GlcNAc
# Outline: as §1
# [5] = biological target: Gal(b1-4)GlcNAc(b1-3)Gal(b1-4)GlcNAc(b1-3)Gal(b1-4)GlcNAc(b1-2)Man(a1-3)[Gal(b1-4)GlcNAc(b1-3)Gal(b1-4)GlcNAc(b1-3)Gal(b1-4)GlcNAc(b1-2)Man(a1-6)]Man(b1-4)GlcNAc(b1-4)GlcNAc
# Outline: as §1
# [6] = biological target: Gal(b1-4)GlcNAc(b1-3)Gal(b1-4)GlcNAc(b1-3)Gal(b1-4)GlcNAc(b1-2)Man(a1-3)[Gal(b1-4)GlcNAc(b1-3)Gal(b1-4)GlcNAc(b1-3)Gal(b1-4)GlcNAc(b1-2)Man(a1-6)]Man(b1-4)GlcNAc(b1-4)[Fuc(a1-6)]GlcNAc
# Outline: as §1
# [7] = biological target: Gal(b1-4)GlcNAc(b1-3)Gal(b1-4)GlcNAc(b1-3)Gal(b1-4)GlcNAc(b1-2)[Gal(b1-4)GlcNAc(b1-3)Gal(b1-4)GlcNAc(b1-3)Gal(b1-4)GlcNAc(b1-6)]Man(a1-6)[Gal(b1-4)GlcNAc(b1-3)Gal(b1-4)GlcNAc(b1-3)Gal(b1-4)GlcNAc(b1-2)Man(a1-3)]Man(b1-4)GlcNAc(b1-4)[Fuc(a1-6)]GlcNAc
# Outline: as §1
# [8] = biological target: Gal(b1-4)GlcNAc(b1-3)Gal(b1-4)GlcNAc(b1-3)Gal(b1-4)GlcNAc(b1-3)Gal(b1-4)GlcNAc(b1-2)Man(a1-3)[Gal(b1-4)GlcNAc(b1-3)Gal(b1-4)GlcNAc(b1-3)Gal(b1-4)GlcNAc(b1-3)Gal(b1-4)GlcNAc(b1-2)Man(a1-6)]Man(b1-4)GlcNAc(b1-4)GlcNAc
# Outline: as §1
# [9] = biological target: Gal(b1-4)GlcNAc(b1-3)Gal(b1-4)GlcNAc(b1-3)Gal(b1-4)GlcNAc(b1-3)Gal(b1-4)GlcNAc(b1-2)Man(a1-3)[Gal(b1-4)GlcNAc(b1-3)Gal(b1-4)GlcNAc(b1-3)Gal(b1-4)GlcNAc(b1-3)Gal(b1-4)GlcNAc(b1-2)Man(a1-6)]Man(b1-4)GlcNAc(b1-4)[Fuc(a1-6)]GlcNAc
# Outline: as §1
# [10] = biological target: Gal(b1-4)GlcNAc(b1-3)Gal(b1-4)GlcNAc(b1-3)Gal(b1-4)GlcNAc(b1-3)Gal(b1-4)GlcNAc(b1-2)[Gal(b1-4)GlcNAc(b1-3)Gal(b1-4)GlcNAc(b1-3)Gal(b1-4)GlcNAc(b1-3)Gal(b1-4)GlcNAc(b1-6)]Man(a1-6)[Gal(b1-4)GlcNAc(b1-3)Gal(b1-4)GlcNAc(b1-3)Gal(b1-4)GlcNAc(b1-3)Gal(b1-4)GlcNAc(b1-2)Man(a1-3)]Man(b1-4)GlcNAc(b1-4)[Fuc(a1-6)]GlcNAc
# Outline: as §1
# [11] = biological target: Gal(b1-4)GlcNAc(b1-3)Gal(b1-4)GlcNAc(b1-3)Gal(b1-4)GlcNAc(b1-3)Gal(b1-4)GlcNAc(b1-3)Gal(b1-4)GlcNAc(b1-2)Man(a1-3)[Gal(b1-4)GlcNAc(b1-3)Gal(b1-4)GlcNAc(b1-3)Gal(b1-4)GlcNAc(b1-3)Gal(b1-4)GlcNAc(b1-3)Gal(b1-4)GlcNAc(b1-2)Man(a1-6)]Man(b1-4)GlcNAc(b1-4)GlcNAc
# Outline: as §1
# [12] = biological target: Gal(b1-4)GlcNAc(b1-3)Gal(b1-4)GlcNAc(b1-3)Gal(b1-4)GlcNAc(b1-3)Gal(b1-4)GlcNAc(b1-3)Gal(b1-4)GlcNAc(b1-2)Man(a1-3)[Gal(b1-4)GlcNAc(b1-3)Gal(b1-4)GlcNAc(b1-3)Gal(b1-4)GlcNAc(b1-3)Gal(b1-4)GlcNAc(b1-3)Gal(b1-4)GlcNAc(b1-2)Man(a1-6)]Man(b1-4)GlcNAc(b1-4)[Fuc(a1-6)]GlcNAc
# Outline: as §1
# [13] = biological target: Gal(b1-4)GlcNAc(b1-3)Gal(b1-4)GlcNAc(b1-3)Gal(b1-4)GlcNAc(b1-3)Gal(b1-4)GlcNAc(b1-3)Gal(b1-4)GlcNAc(b1-2)[Gal(b1-4)GlcNAc(b1-3)Gal(b1-4)GlcNAc(b1-3)Gal(b1-4)GlcNAc(b1-3)Gal(b1-4)GlcNAc(b1-3)Gal(b1-4)GlcNAc(b1-6)]Man(a1-6)[Gal(b1-4)GlcNAc(b1-3)Gal(b1-4)GlcNAc(b1-3)Gal(b1-4)GlcNAc(b1-3)Gal(b1-4)GlcNAc(b1-3)Gal(b1-4)GlcNAc(b1-2)Man(a1-3)]Man(b1-4)GlcNAc(b1-4)[Fuc(a1-6)]GlcNAc
# Outline: as §1
# [14] = biological target: Gal(b1-4)GlcNAc(b1-3)Gal(b1-4)GlcNAc(b1-3)Gal(b1-4)GlcNAc(b1-3)Gal(b1-4)GlcNAc(b1-3)Gal(b1-4)GlcNAc(b1-3)Gal(b1-4)GlcNAc(b1-2)Man(a1-3)[Gal(b1-4)GlcNAc(b1-3)Gal(b1-4)GlcNAc(b1-3)Gal(b1-4)GlcNAc(b1-3)Gal(b1-4)GlcNAc(b1-3)Gal(b1-4)GlcNAc(b1-3)Gal(b1-4)GlcNAc(b1-2)Man(a1-6)]Man(b1-4)GlcNAc(b1-4)GlcNAc
# Outline: as §1
# [15] = biological target: Gal(b1-4)GlcNAc(b1-3)Gal(b1-4)GlcNAc(b1-3)GalNAc
# Outline: as §1
# [16] = biological target: Gal(b1-4)GlcNAc(b1-3)Gal(b1-4)GlcNAc(b1-3)[Gal(b1-4)GlcNAc(b1-3)Gal(b1-4)GlcNAc(b1-6)]GalNAc
# Outline: as §1
# [17] = biological target: Gal(b1-4)GlcNAc(b1-3)Gal(b1-4)GlcNAc(b1-6)[Gal(b1-3)]GalNAc
# Outline: as §1
# [18] = biological target: Gal(b1-4)GlcNAc(b1-3)Gal(b1-4)[Fuc(a1-3)]GlcNAc(b1-3)Gal(b1-4)[Fuc(a1-3)]GlcNAc
# Outline: as §1
# [19] = biological target: Gal(b1-4)GlcNAc(b1-3)GalNAc
# Outline: as §1
# [20] = biological target: Gal(b1-4)GlcNAc(b1-3)[Fuc(a1-3)GlcNAc(b1-6)]Gal(b1-4)Glc
# Outline: as §1
# [21] = biological target: Gal(b1-4)GlcNAc(b1-3)[Gal(b1-4)GlcNAc(b1-6)]Gal(b1-4)GlcNAc
# Outline: as §1
# [22] = biological target: Gal(b1-4)GlcNAc(b1-3)[GlcNAc(b1-6)]Gal(b1-4)GlcNAc
# Outline: as §1
# [23] = biological target: Gal(b1-4)GlcNAc(b1-6)Gal(b1-4)GlcNAc
# Outline: as §1
# [24] = biological target: Gal(b1-4)GlcNAc(b1-6)GalNAc
# Outline: as §1
# [25] = biological target: Gal(b1-4)GlcNAc(b1-6)[Gal(b1-3)]GalNAc
# Outline: as §1
# [26] = biological target: Gal(b1-4)GlcNAc(b1-6)[Gal(b1-4)GlcNAc(b1-3)]GalNAc
# Outline: as §1
# [27] = biological target: Gal(b1-4)GlcNAc6P
# Outline: as §1
# [28] = biological target: Gal(b1-6)Gal
# Outline: as §1
# [29] = biological target: Gal3S(b1-3)GalNAc
# Outline: as §1
# [30] = biological target: Gal3S(b1-3)GlcNAc
# Outline: as §1
# [31] = biological target: Gal3S(b1-3)[Fuc(a1-4)]GlcNAc
# Outline: as §1
# [32] = biological target: Gal3S(b1-4)Glc
# Outline: as §1
# [33] = biological target: Gal3S(b1-4)Glc6S
# Outline: as §1
# [34] = biological target: Gal3S(b1-4)GlcNAc
# Outline: as §1
# [35] = biological target: Gal3S(b1-4)[Fuc(a1-3)]Glc6S
# Outline: as §1
# [36] = biological target: Gal3S(b1-4)[Fuc(a1-3)]GlcNAc
# Outline: as §1
# [37] = biological target: Gal3S(b1-4)[Fuc(a1-3)]GlcNAc6S
# Outline: as §1
# [38] = biological target: Gal3S4S(b1-4)GlcNAc
# Outline: as §1
# [39] = biological target: Gal3S6S(b1-4)GlcNAc
# Outline: as §1
# [40] = biological target: Gal3S6S(b1-4)GlcNAc6S
# Outline: as §1
# [41] = biological target: Gal4S(b1-4)GlcNAc
# Outline: as §1
# [42] = biological target: Gal4S6S(b1-4)GlcNAc
# Outline: as §1
# [43] = biological target: Gal6P(b1-4)GlcNAc
# Outline: as §1
# [44] = biological target: Gal6S(b1-3)GlcNAc
# Outline: as §1
# [45] = biological target: Gal6S(b1-3)GlcNAc6S
# Outline: as §1
binder,measurement,setting,value
B1,glycan array binding signal (z-score),[1],-0.163
same,glycan array binding signal (z-score),[2],-0.148
same,glycan array binding signal (z-score),[3],0.012
same,glycan array binding signal (z-score),[4],-0.309
same,glycan array binding signal (z-score),[5],0.236
same,glycan array binding signal (z-score),[6],-0.238
same,glycan array binding signal (z-score),[7],0.239
same,glycan array binding signal (z-score),[8],0.015
same,glycan array binding signal (z-score),[9],-0.183
same,glycan array binding signal (z-score),[10],0.383
same,glycan array binding signal (z-score),[11],-0.16
same,glycan array binding signal (z-score),[12],0.003
same,glycan array binding signal (z-score),[13],-0.153
same,glycan array binding signal (z-score),[14],-0.004
same,glycan array binding signal (z-score),[15],-0.442
same,glycan array binding signal (z-score),[16],-0.087
same,glycan array binding signal (z-score),[17],-0.423
same,glycan array binding signal (z-score),[18],-0.245
same,glycan array binding signal (z-score),[19],-0.314
same,glycan array binding signal (z-score),[20],-0.412
same,glycan array binding signal (z-score),[21],-0.289
same,glycan array binding signal (z-score),[22],-0.09
same,glycan array binding signal (z-score),[23],0.015
same,glycan array binding signal (z-score),[24],-0.099
same,glycan array binding signal (z-score),[25],-0.383
same,glycan array binding signal (z-score),[26],-0.21
same,glycan array binding signal (z-score),[27],-0.242
same,glycan array binding signal (z-score),[28],0.201
same,glycan array binding signal (z-score),[29],-0.277
same,glycan array binding signal (z-score),[30],-0.347
same,glycan array binding signal (z-score),[31],-0.286
same,glycan array binding signal (z-score),[32],-0.258
same,glycan array binding signal (z-score),[33],-0.25
same,glycan array binding signal (z-score),[34],-0.484
same,glycan array binding signal (z-score),[35],0.295
same,glycan array binding signal (z-score),[36],-0.442
same,glycan array binding signal (z-score),[37],-0.271
same,glycan array binding signal (z-score),[38],-0.361
same,glycan array binding signal (z-score),[39],-0.232
same,glycan array binding signal (z-score),[40],0.039
same,glycan array binding signal (z-score),[41],-0.384
same,glycan array binding signal (z-score),[42],-0.238
same,glycan array binding signal (z-score),[43],-0.356
same,glycan array binding signal (z-score),[44],0.121
same,glycan array binding signal (z-score),[45],-0.314
